Target: ZIKV NS2B-G4SG4-NS3 serine protease (Zika virus, UniProt A0A024B7W1, R1467A/R1531G)
Assay: ZIKV protease inhibition assay
Type: biochemical

`O=C([N-]c1c[n+](C[C@H]2CC[C@H](c3cncnc3)CC2)no1)Nc1cccc(C(F)(F)F)c1` [Example 186, (3-(((1R,4R)-4-(Pyrimidin-5-yl)cyclohexyl)methyl)-1,2,3-oxadiazol-3-ium-5-yl)((3-(trifluoromethyl)phenyl)carbamoyl)amide] and `O=C([N-]c1c[n+](C[C@H]2CC[C@H](c3cncnc3)CC2)no1)Nc1ccnc(C(F)(F)F)c1` [Example 187, (3-(((1R,4R)-4-(Pyrimidin-5-yl)cyclohexyl)-methyl)-1,2,3-oxadiazol-3-ium-5-yl)((2-(trifluoromethyl)pyridin-4-yl)carbamoyl)amide] fall in the same range of IC50: 100 to 1000 nM for the first, 100 to 1000 nM for the second.

Compared with `CN(C)C[C@H]1CC[C@H]([n+]2cc([N-]C(=O)Nc3cc(NC(=O)Cc4ccccc4O)cc(C(F)(F)F)c3)on2)CC1` [Example 191, (3-((1R,4R)-4-((Dimethylamino)methyl)-cyclohexyl)-1,2,3-oxadiazol-3-ium-5-yl)((3-(2-(2-hydroxyphenyl)acetamido)-5-(trifluoromethyl)-phenyl)carbamoyl)amide], `Cc1cccc(CC(=O)Nc2cc(NC(=O)[N-]c3c[n+]([C@H]4CC[C@H](CN(C)C)CC4)no3)cc(C(F)(F)F)c2)c1C` [Example 212, (3-((1R,4R)-4-((Dimethylamino)methyl)-cyclohexyl)-1,2,3-oxadiazol-3-ium-5-yl)((3-(2-(2,3-dimethylphenyl)acetamido)-5-(trifluoromethyl)phenyl)carbamoyl)amide] is higher in IC50: < 100 nM for the first, 100 to 1000 nM for the second.

First: CN(C)C[C@H]1CC[C@H]([n+]2cc([N-]C(=O)Nc3cc(NC(=O)Cc4ccccc4Cl)nc(C(F)(F)F)c3)on2)CC1 [Example 193, ((2-(2-(2-Chlorophenyl)acetamido)-6-(trifluoromethyl)pyridin-4-yl)carbamoyl)(3-((1R,4R)-4-((dimethylamino)methyl)-cyclohexyl)-1,2,3-oxadiazol-3-ium-5-yl)amide]
Second: CN(C)C[C@H]1CC[C@H]([n+]2cc([N-]C(=O)Nc3cc(NC(=O)Cc4c(F)cccc4Cl)cc(C(F)(F)F)c3)on2)CC1 [Example 198, ((3-(2-(2-Chloro-6-fluorophenyl)acetamido)-5-(trifluoromethyl)phenyl)carbamoyl)(3-((1R,4R)-4-((dimethylamino)methyl)cyclohexyl)-1,2,3-oxadiazol-3-ium-5-yl)amide]
The IC50 of the first is higher: 100 to 1000 nM for the first, < 100 nM for the second. The second is the more potent here.

First: CN(C)C[C@H]1CC[C@H]([n+]2cc([N-]C(=O)Nc3cc(NC(=O)C(F)c4ccccc4F)cc(C(F)(F)F)c3)on2)CC1 (stereo partly drawn) [Example 194, (3-((1R,4R)-4-((Dimethylamino)methyl)-cyclohexyl)-1,2,3-oxadiazol-3-ium-5-yl)((3-(2-fluoro-2-(2-fluorophenyl)acetamido)-5-(trifluoromethyl)phenyl)carbamoyl)amide]
Second: CC(C(=O)Nc1cc(NC(=O)[N-]c2c[n+]([C@H]3CC[C@H](CN(C)C)CC3)no2)cc(C(F)(F)F)c1)c1ccccc1Cl (stereo partly drawn) [Example 205, ((3-(2-(2-Chlorophenyl)propanamido)-5-(trifluoromethyl)phenyl)carbamoyl)(3-((1R,4R)-4-((dimethylamino)methyl)cyclohexyl)-1,2,3-oxadiazol-3-ium-5-yl)amide]
The IC50 of the first is lower: < 100 nM for the first, 100 to 1000 nM for the second.

`CN(C)C[C@H]1CC[C@H]([n+]2cc([N-]C(=O)Nc3cc(NC(=O)C4Cc5ccccc54)cc(C(F)(F)F)c3)on2)CC1` (some centres unmarked) [Example 195] and `CN(C)C[C@H]1CC[C@H]([n+]2cc([N-]C(=O)Nc3cc(NC(=O)C(C)(C)c4ccccc4)cc(C(F)(F)F)c3)on2)CC1` [Example 208, (3-((1R,4R)-4-((Dimethylamino)methyl)-cyclohexyl)-1,2,3-oxadiazol-3-ium-5-yl)((3-(2-methyl-2-phenylpropanamido)-5-(trifluoromethyl)phenyl)carbamoyl)amide] fall in the same range of IC50: 100 to 1000 nM for the first, 100 to 1000 nM for the second.

Compared with `CN(C)C[C@H]1CC[C@H]([n+]2cc([N-]C(=O)Nc3cc(NC(=O)Cc4cccc(O)n4)cc(C(F)(F)F)c3)on2)CC1` [Example 196, (3-((1R,4R)-4-((Dimethylamino)methyl)-cyclohexyl)-1,2,3-oxadiazol-3-ium-5-yl)((3-(2-(6-hydroxypyridin-2-yl)acetamido)-5-(trifluoromethyl)phenyl)carbamoyl)amide], `CN(C)C[C@H]1CC[C@H]([n+]2cc([N-]C(=O)Nc3cc(NC(=O)Cc4c(F)cccc4F)cc(C(F)(F)F)c3)on2)CC1` [Example 199, ((3-(2-(2,6-Difluorophenyl)acetamido)-5-(trifluoromethyl)phenyl)carbamoyl)(3-((1R,4R)-4-((dimethylamino)methyl)cyclohexyl)-1,2,3-oxadiazol-3-ium-5-yl)amide] is lower in IC50: 1000 to 20000 nM for the first, < 100 nM for the second. The second is the more potent here.

`Cc1noc(C)c1CC(=O)Nc1cc(NC(=O)[N-]c2c[n+]([C@H]3CC[C@H](CN(C)C)CC3)no2)cc(C(F)(F)F)c1` [Example 197, (3-((1R,4R)-4-((Dimethylamino)methyl)-cyclohexyl)-1,2,3-oxadiazol-3-ium-5-yl)((3-(2-(3,5-dimethylisoxazol-4-yl)acetamido)-5-(trifluoromethyl)phenyl)carbamoyl)amide] and `Cc1ccccc1CC(=O)Nc1cc(NC(=O)[N-]c2c[n+]([C@H]3CC[C@H](N(C)C)CC3)no2)cc(C(F)(F)F)c1` [Example 257, (3-((1R,4R)-4-(Dimethylamino)cyclohexyl)-1,2,3-oxadiazol-3-ium-5-yl)((3-(2-(o-tolyl)-acetamido)-5-(trifluoromethyl)phenyl)-carbamoyl)amide] fall in the same range of IC50: 100 to 1000 nM for the first, 100 to 1000 nM for the second.

First: Cc1ccccc1CC(=O)Nc1cc(NC(=O)[N-]c2c[n+]([C@H]3CC[C@H](C(C)(C)O)CC3)no2)cc(C(F)(F)F)c1 [Example 206, (3-((1R,4R)-4-(2-Hydroxypropan-2-yl)cyclohexyl)-1,2,3-oxadiazol-3-ium-5-yl)((3-(2-(o-tolyl)acetamido)-5-(trifluoromethyl)phenyl)-carbamoyl)amide]
Second: Cc1ccccc1CC(=O)Nc1cc(NC(=O)[N-]c2c[n+]([C@H]3CC[C@H](CO)CC3)no2)cc(C(F)(F)F)c1 [Example 228, (3-((1R,4R)-4-(Hydroxymethyl)cyclohexyl)-1,2,3-oxadiazol-3-ium-5-yl)((3-(2-(o-tolyl)acetamido)-5-(trifluoromethyl)phenyl)carbamoyl)amide]
The IC50 of the first is lower: < 100 nM for the first, 100 to 1000 nM for the second. The first is the more potent here.

`COC(=O)[C@H]1CC[C@H]([n+]2cc([N-]C(=O)Nc3cc(NC(=O)Cc4ccccc4C)cc(C(F)(F)F)c3)on2)CC1` [Example 227, (3-((1R,4R)-4-(Methoxycarbonyl)cyclohexyl)-1,2,3-oxadiazol-3-ium-5-yl)((3-(2-(o-tolyl)-acetamido)-5-(trifluoromethyl)phenyl)carbamoyl) amide] and `CNC(=O)[C@H]1CC[C@H]([n+]2cc([N-]C(=O)Nc3cc(NC(=O)Cc4ccccc4C)cc(C(F)(F)F)c3)on2)CC1` [Example 251, rac-(3-((1R,4R)-4-(Methylcarbamoyl)-cyclohexyl)-1,2,3-oxadiazol-3-ium-5-yl)((3-(2-(o-tolyl)acetamido)-5-(trifluoromethyl)phenyl)-carbamoyl)amide] fall in the same range of IC50: 100 to 1000 nM for the first, 100 to 1000 nM for the second.

`Cc1ccccc1CC(=O)Nc1cc(NC(=O)[N-]c2c[n+]([C@H]3CC[C@H](C(=O)O)CC3)no2)cc(C(F)(F)F)c1` [Example 229, (3-((1R,4R)-4-Carboxycyclohexyl)-1,2,3-oxadiazol-3-ium-5-yl)((3-(2-(o-tolyl)acetamido)-5-(trifluoromethyl)phenyl)carbamoyl)amide] and `Cc1ccccc1CC(=O)Nc1cc(NC(=O)[N-]c2c[n+]([C@H]3CC[C@H](C(=O)N(C)C)CC3)no2)cc(C(F)(F)F)c1` [Example 248, (3-((1R,4R)-4-(Dimethylcarbamoyl)-cyclohexyl)-1,2,3-oxadiazol-3-ium-5-yl)((3-(2-(o-tolyl)acetamido)-5-(trifluoromethyl)phenyl)-carbamoyl)amide] fall in the same range of IC50: 100 to 1000 nM for the first, 100 to 1000 nM for the second.

First: Cc1cnn(C2COC2)c1-c1ccc(C[n+]2cc([N-]C(=O)Nc3ccnc(C(F)(F)F)c3)on2)cc1 [Example 239, (3-((4-(4-Methyl-2-(oxetan-3-yl)pyrazol-3-yl]phenyl)methyl)oxadiazol-3-ium-5-yl)-((2-(trifluoromethyl)pyridin-4-yl)carbamoyl)-azanide]
Second: Cc1ncncc1[C@H]1CC[C@H](C[n+]2cc([N-]C(=O)Nc3ccnc(C(F)(F)F)c3)on2)CC1 [Example 241, (3-(((1R,4S)-4-(4-Methylpyrimidin-5-yl)cyclohexyl)methyl)-1,2,3-oxadiazol-3-ium-5-yl)((2-(trifluoromethyl)pyridin-4-yl)carbamoyl)-amide]
The IC50 of the first is lower: < 100 nM for the first, 100 to 1000 nM for the second.

In the case of `Cc1ccccc1CC(=O)Nc1cc(NC(=O)[N-]c2c[n+]([C@H]3CC[C@H](C(=O)N4CCCC4)CC3)no2)cc(C(F)(F)F)c1` [Example 254, (3-((1R,4R)-4-(Pyrrolidine-1-carbonyl)-cyclohexyl)-1,2,3-oxadiazol-3-ium-5-yl)((3-(2-(o-tolyl)acetamido)-5-(trifluoromethyl)phenyl)-carbamoyl)amide], the IC50 is reported as 100 to 1000 nM.

Reference: patent EP4563146A1 (IRBM S.P.A., priority 2023, dated 2025)
